# Laboratory results taken from the BET-seq Pho4 binding data (Le et al. 2018).
# The list shows a part of the results. These are noisy estimates, calculated here from bound and input reads.
# Target: T1, Pho4 (S. cerevisiae) (UniProt P07270)
# T1 sequence: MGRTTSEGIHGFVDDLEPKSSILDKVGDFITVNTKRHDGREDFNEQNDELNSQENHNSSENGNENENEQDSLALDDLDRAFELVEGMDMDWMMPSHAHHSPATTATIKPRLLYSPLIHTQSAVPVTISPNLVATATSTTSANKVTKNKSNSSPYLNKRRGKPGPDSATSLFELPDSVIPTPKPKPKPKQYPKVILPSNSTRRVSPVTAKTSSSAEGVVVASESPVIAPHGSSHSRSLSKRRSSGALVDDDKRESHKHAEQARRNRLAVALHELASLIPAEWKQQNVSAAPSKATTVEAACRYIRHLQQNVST
# Assay: relative binding free energy (BET-seq); higher = weaker binding
# Details: reference: library average
row,Sequence,relative binding free energy [kcal/mol]
1,AAAATCACGTGCGGTG,0.23
2,TGGGTCACGTGCTGAG,-0.08
3,GTGGCCACGTGGGATA,-0.21
4,TCATTCACGTGATTGG,0.43
5,TGAAGCACGTGGTTAG,-0.12
6,AGGCTCACGTGATGTT,0.37
7,CAATGCACGTGTGGGC,0.01
8,CGTTTCACGTGGTTAT,0.2
9,ACTGTCACGTGTATTT,0
10,ATTTTCACGTGGGGAT,0.15
11,ATATTCACGTGGCTAG,0.32
12,AACTACACGTGTTGGT,0.13
13,TTTCGCACGTGGAGAT,-0.02
14,GGAATCACGTGCGAGG,0.09
15,GTGGGCACGTGATAGG,0.03
16,TGATGCACGTGTATCG,0.05
17,ATAGGCACGTGACGAT,0.07
18,GGGTTCACGTGGAACT,0.39
19,TTCGTCACGTGTGTAT,0.22
20,ATATGCACGTGGTGGC,-0.07
21,CTTGTCACGTGTTTCT,0.03
22,AGCAACACGTGAGGGT,0.17
23,GGTGACACGTGTCTGT,-0.01
24,AAGAACACGTGGTGGT,-0.07
25,CCAGTCACGTGTTTGT,0.17
26,GTTGACACGTGGAGGA,0.19

row,Sequence,relative binding free energy [kcal/mol]
1,GTAGTCACGTGGGGTG,0.04
2,GCAGGCACGTGGTCGG,-0.23
3,GTTGACACGTGATTGC,0.33
4,GGGGTCACGTGTGGGT,0.24
5,TCAGACACGTGTGAGT,0.08
6,TTTTACACGTGAAGGT,0.34
7,TGGGCCACGTGGGGGG,-0.19
8,TGGGACACGTGTCGTT,-0.12
9,GAAATCACGTGGCGGG,0.13
10,GTGAACACGTGTGAAG,0.17
11,AAAGACACGTGGTAAT,0.17
12,TATTCCACGTGTTTGT,-0.06
13,GAGGGCACGTGCAAAG,0.14
14,ATTGGCACGTGTTGTT,-0.01
15,CTGGACACGTGGTTGT,-0.2
16,TGCGGCACGTGTCGTG,-0.25
17,GCATGCACGTGTGGTG,0.09
18,AGATGCACGTGGGGCT,-0.19
19,GGTAACACGTGCGGGC,-0.08
20,ATTTCCACGTGGATTT,0.14
21,GCATACACGTGTGTGG,0.08
22,GAGAGCACGTGTGGGA,-0.09
23,TATTTCACGTGGAGAA,0.17
24,AGGCTCACGTGGTTGT,0.2
25,TTCAGCACGTGTGGTC,-0.01
26,TAAGGCACGTGTTATT,-0.11

row,Sequence,relative binding free energy [kcal/mol]
1,CGGGGCACGTGCAGAG,-0.16
2,GTGATCACGTGGCTGA,0.05
3,GCGCCCACGTGGGGGG,-0.35
4,TAAGGCACGTGCTTTG,-0.11
5,AAGTTCACGTGCATGG,0.24
6,GGTGCCACGTGGGAAT,-0.13
7,ATGGCCACGTGGTGTT,-0.18
8,GTGGACACGTGGAGGT,0.14
9,TGATGCACGTGATCGT,0
10,CGGGACACGTGTGGTA,-0.08
11,TCGATCACGTGTTATT,0.22
12,GAAATCACGTGTCGTG,0.25
13,AAGGACACGTGTTAGG,-0.17
14,ACAGGCACGTGGTGGA,-0.13
15,TAAGGCACGTGTGGGG,-0.05
16,GTGGGCACGTGGACAA,-0.13
17,GGTTGCACGTGGTTCG,0.06
18,ATGTACACGTGCTTTG,0.07
19,CGGCGCACGTGAAGTG,0.15
20,GGTAACACGTGTAGAG,0.2
21,TCTAGCACGTGGGGGC,-0.08
22,TGCTACACGTGTGGTC,0.09
23,GGTTGCACGTGGAGCG,-0.04
24,TGTTGCACGTGGTTAC,-0.13
25,GCAGTCACGTGCGGGT,0
26,TTATCCACGTGAGTGT,0.2

row,Sequence,relative binding free energy [kcal/mol]
1,CTGTTCACGTGACGTG,0.35
2,ATGGACACGTGCGGGC,-0.01
3,GTAGTCACGTGTGGCT,0.19
4,TTTGGCACGTGGTCGC,-0.26
5,AGGGCCACGTGTAGGC,-0.01
6,CTGGTCACGTGGTAGC,0.11
7,GATATCACGTGGGAGG,0.16
8,GGTGCCACGTGTTAAG,0.04
9,GAGGTCACGTGATGTT,0.26
10,GTGAGCACGTGGCAGG,-0.16
11,AAAATCACGTGGTAGG,0.16
12,ATGGTCACGTGTCAGA,0.06
13,AGATTCACGTGTCTTG,0.44
14,TGGCGCACGTGAGTCG,0.09
15,GTTATCACGTGGAGGA,0.12
16,GGTGGCACGTGAAGTT,0.38
17,ATTTGCACGTGTGGTA,0.05
18,GTCGGCACGTGGTTGT,-0.04
19,AGAGACACGTGTGTGA,-0.09
20,TGGAACACGTGTGGTT,0.09
21,TGAATCACGTGGTATA,0.06
22,TTATGCACGTGAGCGT,0.14
23,TTTATCACGTGGTGAA,0.09
24,GACGGCACGTGGGGCG,-0.24
25,GGGAGCACGTGAGCGG,0.15
26,AGGAACACGTGGGTTA,-0.04

row,Sequence,relative binding free energy [kcal/mol]
1,TGGTACACGTGTTGAC,0.02
2,GCCGTCACGTGGGGTG,0.01
3,TGAGTCACGTGCATGG,0.08
4,GGCGTCACGTGCTGTT,0.05
5,TTCTTCACGTGGGGGT,0.25
6,TGGTACACGTGATATG,0.1
7,TGACTCACGTGGGTGA,-0.1
8,ATGTGCACGTGAAGTC,0.18
9,ACTGACACGTGTGGGG,0.02
10,GTTGACACGTGTTGCA,0.11
11,GTTAACACGTGTGACG,0.23
12,CATGTCACGTGTAAGA,0.19
13,TATTGCACGTGGGCAG,-0.23
14,ATCTGCACGTGTTATG,0.05
15,TAGGGCACGTGCGGAT,-0.15
16,AATGTCACGTGAGTTT,0.29
17,AGGGACACGTGGTGTA,-0.02
18,TGGTACACGTGCCGTG,-0.04
19,AATTACACGTGGGTCG,0.15
20,CTAATCACGTGGCTGG,0.2
21,GTGGACACGTGGCGCG,-0.02
22,AGCGGCACGTGCGCGG,-0.3
23,TGAGACACGTGTTTTA,0.04
24,TAAAGCACGTGGTTAA,-0.21
25,CTTAGCACGTGTGGAA,0.05
26,TCAAGCACGTGTGCGT,0.05

row,Sequence,relative binding free energy [kcal/mol]
1,GTAGTCACGTGGGGTC,-0.02
2,AGAGGCACGTGCGTTG,-0.07
3,AAAAGCACGTGCGGGG,-0.13
4,GTTATCACGTGATAGA,0.21
5,CAGGGCACGTGTTGGC,-0.01
6,ATCAGCACGTGTTTGT,-0.14
7,GGTATCACGTGACGTG,0.28
8,GGTATCACGTGTATAT,0.26
9,TATGGCACGTGTCGTA,-0.1
10,TCCGGCACGTGGAGGT,-0.08
11,ATAGGCACGTGTAGAA,-0.08
12,TGGTACACGTGTTCTT,0
13,ACGCTCACGTGGGTTG,-0.05
14,TTTACCACGTGTTGTT,0
15,AAGTGCACGTGTTGAA,0.04
16,ACAGTCACGTGGTTGT,0.14
17,ATGCGCACGTGTTTAG,-0.09
18,CAAAGCACGTGTGTGG,-0.08
19,TGATGCACGTGCTATG,-0.16
20,AGAGTCACGTGAAGTT,0.33
21,AGGTTCACGTGTTCTG,0.19
22,TACGTCACGTGAATGG,0.24
23,GGTTACACGTGGTTAA,0.22
24,TTTAACACGTGAAGGC,0.35
25,CAGGTCACGTGGAAGG,0.09
26,ACTGTCACGTGTTATG,0.18

row,Sequence,relative binding free energy [kcal/mol]
1,TCTGGCACGTGAGCGT,0.1
2,GAAGACACGTGGTTGG,0.12
3,GGTGGCACGTGCGCTT,-0.22
4,GGGGGCACGTGTAGAA,-0.07
5,AGGGGCACGTGGGCTA,-0.41
6,TGCCTCACGTGAGGTG,0.33
7,GGTCGCACGTGTGTTT,0.05
8,TAAGTCACGTGGTAGC,0.05
9,TTGGTCACGTGATCTG,0.21
10,AGGTGCACGTGCTAGG,-0.18
11,TTGAGCACGTGCGCTT,-0.12
12,GTATGCACGTGGCTAT,-0.09
13,ATAAGCACGTGACGTT,0.12
14,GTGAGCACGTGATTTA,0.22
15,AAATTCACGTGGTTGA,0.15
16,TGTTGCACGTGGACGC,0.06
17,AGTCTCACGTGGGTTA,0.02
18,AGGATCACGTGGTTAT,0.06
19,CATTGCACGTGTGGGA,0.02
20,AGCTTCACGTGGGTGC,0.13
21,GGTGTCACGTGTTGCG,0.1
22,TGTTCCACGTGTGCAT,0.11
23,TGATACACGTGTCGTT,0.03
24,AGTCCCACGTGGTGGT,-0.11
25,AAAAGCACGTGGGGCG,-0.24
26,TGAGGCACGTGGGTCT,-0.2

row,Sequence,relative binding free energy [kcal/mol]
1,AAAGGCACGTGAGTGA,0.17
2,GGTGTCACGTGCGTGA,0.03
3,ATGGGCACGTGGTTTT,-0.14
4,TTTTGCACGTGCTTAG,-0.07
5,AGTGCCACGTGGCGGA,-0.18
6,GAGAGCACGTGTTTAT,-0.03
7,TGTGTCACGTGTGTGA,0.09
8,GAAATCACGTGTTTGG,0.09
9,TTGTTCACGTGGTGAC,0.35
10,AAGTGCACGTGTAAGA,-0.01
11,CGTTGCACGTGCTATG,0.06
12,TGAGGCACGTGCAAGT,-0.14
13,TGTATCACGTGGGTCA,0.05
14,TGTATCACGTGACGGA,0.26
15,GAGTTCACGTGGTGAA,0.2
16,AGTTGCACGTGGCTGC,-0.08
17,CGTGTCACGTGGGGCC,-0.1
18,TAATGCACGTGGGATG,-0.04
19,GGTTGCACGTGGGCGA,-0.18
20,ATGCACACGTGAGGTT,0.27
21,CAGTGCACGTGTTGTG,-0.04
22,TTTTACACGTGACGTA,0.37
23,TGGGGCACGTGATAAA,0.1
24,ATTGTCACGTGAGTAG,0.28
25,CAAGGCACGTGTGGAG,-0.14
26,GGAGGCACGTGGGCTG,-0.31

row,Sequence,relative binding free energy [kcal/mol]
1,ATTGTCACGTGTTGGA,0
2,TTATTCACGTGTTAAG,0.23
3,TCTAACACGTGGTTGT,-0.01
4,TGCAACACGTGGGTGG,-0.28
5,ATAGACACGTGTGTTT,0.13
6,TTTGTCACGTGCAGAT,0.12
7,GGGCGCACGTGGGGAC,-0.08
8,AAATGCACGTGGTGAA,-0.08
9,AGGTTCACGTGGGCAG,0.15
10,GGGTTCACGTGGCAGA,0.24
11,ATGAACACGTGTTTGA,-0.04
12,GGAGTCACGTGGAGAT,0.15
13,GTTGTCACGTGCGGCG,0.18
14,AGTGACACGTGGGATG,-0.11
15,GGTGACACGTGTGCGC,0.16
16,GTGAACACGTGTTGAG,-0.02
17,TATTGCACGTGTAGTA,-0.01
18,GCATTCACGTGTGGGT,0.33
19,GTTTTCACGTGTATGT,0.26
20,TGTTACACGTGGTAAG,0.05
21,CTTTACACGTGTAATG,0.2
22,TTTATCACGTGTAGCT,0.13
